# Some compounds were tested as several samples or in several runs, with calls that do not always agree.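 Step 1: grow cells in 96-well plates. Step 2: add test compound at a single concentration. Step 3: incubate 48 h. Step 4: record percent growth.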 Some entries of the source have several records that differ or are many. This list holds those alone. The calls were made as follows: active = growth percent below 10; inactive = the rest. An entry can have further records. This drug was run again and again over the years, at its own concentration, as given; each value is one run. Additions like (4×) stand for listed records that agree.
# What was measured:
# SF-268 CNS = test: NCI-60 one-dose screen, 48 h (100 = growth as untreated, 0 = no growth, -100 = all killed); details: 2.5 mM
# SF-295 CNS = test: as above; details: 2.5 mM
compound,measurement,setting,value
O=c1[nH]cc(F)c(=O)[nH]1,growth,SF-268 CNS; runs of 1995,"inactive: 38.9, 36, 20.3, 59.5, 35, 21.1, 36.9, 30, 16.8, 27, 12, 32.6, 33.7, 60.1, 28.1, 50.5, 45.9, 26.8, 24.3, 39.8, 30.3, 15.9, 29.6, 59.6, 10.8, 29.1, 31.9, 41.1, 29.2, 33.3, 34.6, 35.7, 47.6, 29.3, 28.9, 22.7, 37.5, 41.2% and active: -14.2%, -22.3%"
same,growth,SF-268 CNS; runs of 1996,"inactive: 47.7, 31.8 (2×), 43.9, 37, 44.9 (2×), 35.4, 20.2, 46.8, 29.7, 15.2, 38.2, 20.5, 39.5, 33, 25.8, 32, 24 (2×), 19.4, 24.4, 28, 43.5, 45.7, 29, 18.6, 12.1, 42.1, 27.8, 45.9, 32.4, 23.3, 21.3, 26.1, 36.4, 20.9, 41.9, 41.5, 36.8, 40.4, 36.2, 60, 44.8, 16.2, 33.8, 56.5, 38.1 (2×), 57.1% and active: -8.05%, 9.31%, 7.88%"
same,growth,SF-268 CNS; runs of 1997,"inactive: 20.3, 35.7, 41.7, 55.4, 26.6, 22.2, 17.8, 13.1, 51.1, 48.7, 27, 45.4, 28 (2×), 22.7, 37, 19.3, 38.2, 44.4, 25.4, 11.9, 29.4, 25.6, 38.5, 37.1, 28.1, 29.7, 36.4, 10, 38.3, 29, 32.1, 37.7, 10.8, 23, 34.7, 42.5, 56.7, 20.1, 30.9, 11.5% and active: -5.12%, 7.14%"
same,growth,SF-268 CNS; runs of 1998,"inactive: 48.2, 34.3, 36.2, 23.3, 21.1, 37.2, 16.9, 25.3, 37.9, 78.2, 37.4, 34.8, 41.9, 32.3, 58, 57, 61.2, 37.8, 51.2, 61% and active: -1.56, -16.1, -14.8, 5.35%"
same,growth,SF-268 CNS; runs of 1999,"inactive: 39.2 (2×), 21.7, 44.4, 22, 28.2, 42.2, 38.2, 25.7, 44, 37.1, 23.9, 33.5, 32.7, 29.3 (3×), 27.2, 32.3, 28.9, 30, 27.1, 32.8, 37.4, 29.9, 40, 54.2, 33.6, 54.3, 37.3, 36.2% and active: 2.1, 3.63, 3.73, 7.13, 3.71, 3.77, 4.5, 2.9, -0.18, 4.31, 4.92%"
same,growth,SF-268 CNS; runs of 2000,"active: 3.35%, 7.77%, 4.11% and inactive: 11.5%"
same,growth,SF-295 CNS; runs of 1991,"inactive: 25.5, 14.1, 15.2, 17.9, 22.6, 24, 11.9, 35.3, 20.9, 20.4 (2×), 16.4, 29.6, 31.6 (2×), 26.2, 25.7, 18.3% and active: -12.2%, -0.446%"
same,growth,SF-295 CNS; runs of 1992,"inactive: 24.6 (3×), 31.1, 31.4, 22.5, 33.2, 31.6, 28.5, 36.8, 13.9, 27.5 (3×), 12.7 (2×), 14, 24.9 (3×), 46, 27.9 (2×), 27.8 (2×), 15.8, 24.4, 47.5, 27.6 (2×), 34, 13.1, 28.8, 32, 36.2, 30.7, 15.3, 46.3, 17.2, 17, 25.5, 33.7, 24.1, 29.9, 35.9, 28.9, 34.9, 25.3, 26.3, 28 (2×), 26.8, 21.3, 20.2, 33.4 (2×), 126, 10.8, 21.6, 35.5, 29.3, 30.2, 26.9 (2×), 47.8, 39.3, 25.4, 22.2, 18, 25.2, 22.7, 28.2, 29.4, 48.7, 16.4, 21, 19.9, 26.2, 22.3, 19.2, 23.2 (2×), 30.5 (2×), 15.4, 29.7, 35.3, 22.8, 11.7, 33.5, 35.1, 35, 34.4, 20.5, 27.3 (3×), 21.1, 25.1, 38.8, 31.2, 38.2, 23.9, 36.1, 17.3, 11.4, 28.7% and active: -2.91%, 1.83%"
same,growth,SF-295 CNS; runs of 1993,"inactive: 27, 23.3, 35.4, 32.2, 27.5, 29.8 (2×), 20.6, 21.9, 26.1, 27.4, 18.2 (2×), 30.6, 13, 36.1, 28.3, 10.5, 29.1, 22, 17.7, 26.6 (2×), 47.2, 32.6, 20.7, 39.9, 26.9, 24.2, 17.8, 25.9, 20.2, 12.1, 22.7, 99.8, 38.5, 16.3, 43, 11.7, 28.2, 14.3, 21.2, 29, 20.5, 16%"
same,growth,SF-295 CNS; runs of 1994,"inactive: 28.8, 14.2, 15.3, 30.7, 25.2, 27.4, 19.1, 21.6, 12.3, 31, 32.6, 11.9, 33.9, 19.9, 10.1, 32.9, 26.2, 34.8, 27.5, 23.5, 30.2, 24.6, 20.7, 34, 25.3% and active: 8.41, 4.1, 6.82, 4.37, -29.3%"
same,growth,SF-295 CNS; runs of 1995,"inactive: 37.6, 25.8, 16.6, 17.6, 23.3, 41.4, 24.9, 14.1, 38.3, 27.7, 32.2, 118, 21.1, 38.5, 32.1 (2×), 22.4, 15.8, 17.9, 18.9, 20.7, 33.8, 44.8, 45.2, 35.2, 28.3, 30.1, 14.7, 42.8, 27.4, 26.4, 14.6, 33, 12.8, 61.5% and active: 9.71%, 1.5%, 9.09%"
same,growth,SF-295 CNS; runs of 1996,"inactive: 20.4 (2×), 21.2, 23 (2×), 26.2, 23.4, 80.8, 26.9, 38.3, 24.8 (3×), 24.5 (2×), 16.7, 35.2, 21.1, 28, 26.3, 42, 31.5, 27.9, 17.8, 27.1 (2×), 24.7, 25.3, 20.8 (2×), 38.9, 29.1, 49.3, 14.9, 11.3, 36.5, 30.3, 24.2, 28.8, 27.2, 20.6, 24.1, 18.9, 29.9, 41.7, 22.1, 24.4, 38.4, 15.6, 31.1, 44.7, 18.1, 26.4, 22.5, 46.6, 14.4% and active: -0.319%, 5.23%, 2.83%"
same,growth,SF-295 CNS; runs of 1997,"inactive: 34.6, 32.4, 26.6, 18.1, 26 (2×), 30.1, 18.9, 23.1, 26.1, 15.2, 25.8, 15.1, 17.4, 23, 29.8, 34, 31.2, 10.6, 22.5, 27.5, 34.4, 25, 15.7, 22.1, 21.1, 23.5, 14.7, 12.2, 19.9, 26.8, 19.2, 21, 16.1, 19.5 (2×), 21.5, 26.7, 23.3, 24.7, 29, 28.3, 19.3, 32.8%"
same,growth,SF-295 CNS; runs of 1998,"inactive: 14.2, 24.6, 26.1, 15.5, 25.6, 37.4, 28.7, 21.9, 29.2, 35.4, 31.3, 25.4, 26.9, 37, 31.1 (2×), 42, 29.9, 23.9, 29, 13, 34.9% and active: -25.9%, 7.69%, 6.61%"
same,growth,SF-295 CNS; runs of 1999,"inactive: 22.4, 29.7, 20.6, 23.6, 36.8% and active: -20, 3.44, 1.16, -42.4, -28.7, 1.47, 1.17, 3.53, -58, -100, -38%"

# From PubChem BioAssay (NCI)
